Measurements reported in paper PMC4336329 (PLoS ONE, 2015).
Screen size: about 310,000 compounds; about 2,200 (0.71%) showed an effect of 50% or more. The effect is printed as a negative number. The list shows a part of the results.

The compounds below were run against human ether-à-go-go-related gene (hERG) potassium channel (human, UniProt Q12809) (assay: primary screen, population patch clamp on CHO cells stably expressing hERG).
Chain of human ether-à-go-go-related gene (hERG) potassium channel (Q12809 whole entry, looked up): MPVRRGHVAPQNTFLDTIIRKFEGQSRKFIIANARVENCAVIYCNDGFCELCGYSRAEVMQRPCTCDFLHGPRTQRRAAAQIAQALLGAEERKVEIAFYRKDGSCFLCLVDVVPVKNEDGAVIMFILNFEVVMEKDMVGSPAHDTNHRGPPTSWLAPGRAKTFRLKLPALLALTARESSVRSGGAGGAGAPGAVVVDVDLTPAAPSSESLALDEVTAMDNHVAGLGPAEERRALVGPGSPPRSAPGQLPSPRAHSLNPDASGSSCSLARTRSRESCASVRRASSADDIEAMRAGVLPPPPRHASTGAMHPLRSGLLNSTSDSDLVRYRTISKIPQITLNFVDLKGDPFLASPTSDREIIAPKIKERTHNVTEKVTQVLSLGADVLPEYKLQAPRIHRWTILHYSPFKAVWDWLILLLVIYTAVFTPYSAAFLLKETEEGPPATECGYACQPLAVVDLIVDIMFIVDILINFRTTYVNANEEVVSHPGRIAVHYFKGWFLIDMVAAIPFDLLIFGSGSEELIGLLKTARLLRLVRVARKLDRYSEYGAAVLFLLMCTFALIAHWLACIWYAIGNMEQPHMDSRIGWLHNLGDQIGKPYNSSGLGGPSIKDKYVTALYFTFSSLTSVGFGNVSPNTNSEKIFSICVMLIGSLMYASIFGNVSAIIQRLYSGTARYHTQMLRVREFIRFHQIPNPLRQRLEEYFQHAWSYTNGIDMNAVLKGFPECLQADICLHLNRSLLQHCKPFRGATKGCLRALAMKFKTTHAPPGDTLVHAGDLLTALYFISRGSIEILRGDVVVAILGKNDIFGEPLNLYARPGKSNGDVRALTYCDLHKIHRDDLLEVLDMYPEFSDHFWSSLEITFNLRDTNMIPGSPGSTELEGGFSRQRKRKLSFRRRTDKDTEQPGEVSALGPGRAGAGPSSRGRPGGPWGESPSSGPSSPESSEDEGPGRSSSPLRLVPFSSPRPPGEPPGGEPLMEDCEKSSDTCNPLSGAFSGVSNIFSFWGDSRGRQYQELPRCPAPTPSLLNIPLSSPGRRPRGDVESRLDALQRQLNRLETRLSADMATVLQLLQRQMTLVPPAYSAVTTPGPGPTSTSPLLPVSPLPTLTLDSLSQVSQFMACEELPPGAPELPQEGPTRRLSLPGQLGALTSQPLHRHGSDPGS

First: COc1ccc(C2/C(=C(\O)c3cc(C)ccc3C)C(=O)C(=O)N2CCN(C)C)cc1OC (stereo not shown)
Second: COc1cc(C(=O)N/C(=C\c2cn(C)c3ccccc23)C(=O)NCCCO)cc(OC)c1OC
The “hERG current change (%, negative = inhibition) at 1uM” value of the first is lower: -1.87% for the first, 8.06% for the second.

First: O=C(CSc1ncnc2nc[nH]c12)c1ccc([N+](=O)[O-])cc1
Second: O=C(COC(=O)C1=NN(c2ccccc2)C(=O)CC1)Nc1ccc([N+](=O)[O-])cc1C(F)(F)F
The “hERG current change (%, negative = inhibition) at 1uM” value of the first is higher: 14.8% for the first, 9.29% for the second.

Going from CCCCn1c(C)c(C(=O)O)c2cc(OC)c3ccccc3c21 to CCOCCCNC(=O)c1ccc2c(c1)ncn2-c1ccccc1OC, the “hERG current change (%, negative = inhibition) at 1uM” value falls from 12.6% to 5.65%.

First: C(=N\c1nc2ccccc2[nH]1)/c1cccs1
Second: Cc1nc(=O)cc(-c2ccccc2)n1-c1ccccc1
The “hERG current change (%, negative = inhibition) at 1uM” value of the first is lower: 2.83% for the first, 13.3% for the second.

Compared with COc1cccc(C(=O)Nc2nc(SCc3ccc(Cl)cc3)n[nH]2)c1, COc1ccc(C(=O)CCNc2cccc(Cl)c2)cc1 is lower in “hERG current change (%, negative = inhibition) at 1uM” value: 12.3% for the first, 8.05% for the second.

First: O=C(NCC(F)(F)F)Nc1cccnc1
Second: CCCC(=O)NNC(=O)Nc1ccccc1
The “hERG current change (%, negative = inhibition) at 1uM” value of the first is lower: 11.6% for the first, 15.5% for the second.

Going from O=C(O)C1(S(=O)(=O)c2ccc(Cl)cc2)CCC1 to COC(=O)[C@H](CCSC)NC(=O)Nc1ccc(S(N)(=O)=O)cc1, the “hERG current change (%, negative = inhibition) at 1uM” value falls from 17.8% to 6.1%.

Going from Cn1ccsc1=NC(=O)c1ccccc1OC(F)F to COc1ccccc1NC(=O)c1ccccc1NS(C)(=O)=O, the “hERG current change (%, negative = inhibition) at 1uM” value falls from 13.6% to -1.51%.

First: Cc1cc(C)c2c(N=NN(C)C)[nH]nc2n1
Second: Cc1cc(SCNC(=O)c2ccccc2)nc(C(C)C)n1
The “hERG current change (%, negative = inhibition) at 1uM” value of the first is lower: -0.958% for the first, 8.47% for the second.

First: Cc1nnc(SCC(C)C)[nH]c1=O
Second: CC(C)(C)C(=O)Nc1nnc(SCC(=O)Nc2nccs2)s1
The “hERG current change (%, negative = inhibition) at 1uM” value of the first is higher: 17.6% for the first, 16.4% for the second.

Going from Cc1ccc(CNC(=O)CCc2c(C)nc3c(c(C)nn3-c3ccc(C)cc3)c2C)cc1 to Cc1nc2nc(C)c(CCC(=O)N3CCc4ccccc43)c(C)n2n1, the “hERG current change (%, negative = inhibition) at 1uM” value falls from 8.69% to -36.3%.

Compared with COc1ccc(NC(=O)CSc2nccn2Cc2ccco2)c(OC)c1, Cc1cc(NC(=O)CSc2nnc(-c3cccnc3)n2Cc2ccccc2)no1 is lower in “hERG current change (%, negative = inhibition) at 1uM” value: 15.2% for the first, 3.85% for the second.

Compared with CCOC(=O)c1c(NC(=S)Nc2ccc(Cl)cc2)sc2c1CCN(C)C2, COC(=O)c1c(NC(=O)CSc2nnnn2-c2ccccc2)sc2c1CCC(C(C)(C)C)C2 (stereo not shown) is higher in “hERG current change (%, negative = inhibition) at 1uM” value: -57.4% for the first, -2.67% for the second.

Compared with NC(=O)c1cc(C(=O)Cc2ccccc2)c[nH]1, O=C(NC1(C(F)(F)F)NC(=O)N(Cc2ccccc2)C1=O)c1cccs1 (stereo not shown) is lower in “hERG current change (%, negative = inhibition) at 1uM” value: 11.4% for the first, 8.79% for the second.

Going from O=C(CC1Oc2ccccc2NC1=O)NC1CCCC1 (stereo not shown) to CCn1c(=O)c(=O)[nH]c2cc(C(=O)NCC3CCCCC3)ccc21, the “hERG current change (%, negative = inhibition) at 1uM” value falls from 12.4% to 0.63%.

Going from CCOC(=O)CC1=C(C(=O)OCC)C2(C(=O)Nc3ccccc32)C(C#N)=C(N)O1 (stereo not shown) to CCOC(=O)Cn1cnc2c(nnn2-c2cccc(OC)c2)c1=O, the “hERG current change (%, negative = inhibition) at 1uM” value rises from 5.54% to 17%.

Going from NS(=O)(=O)c1ccc(NS(=O)(=O)c2ccc3c(c2)OCCO3)cc1 to C/C(CC(=O)Nc1ccc2c(c1)OCCO2)=N\NC(=O)COc1ccc(C)cc1Br, the “hERG current change (%, negative = inhibition) at 1uM” value falls from 14.3% to -8.51%.

Going from CC(=O)Nc1ccc(S(=O)(=O)NCCC(=O)OCC(=O)NNC(=O)c2ccccc2)cc1 to C/C(CC(=O)Nc1ccc(OCc2ccccc2)cc1)=N\NC(=O)C(=O)Nc1ccc(C)c(Cl)c1, the “hERG current change (%, negative = inhibition) at 1uM” value rises from -0.169% to 10.9%.

First: Cc1ccc(C(=O)OC(C)C(=O)NC2CCCCC2C)cc1S(=O)(=O)N1CCOCC1 (stereo not shown)
Second: Cc1ccc(NC(=O)CSc2ccccn2)cc1S(=O)(=O)N1CCOCC1
The “hERG current change (%, negative = inhibition) at 1uM” value of the first is lower: 9.52% for the first, 12.5% for the second.

Compared with Cc1cc(Cl)ccc1OCCCC(=O)NNC(=O)c1ccccc1O, Cn1c(SCC(=O)NNC(=O)Nc2ccc(Cl)cc2)nnc1-c1ccccc1 is higher in “hERG current change (%, negative = inhibition) at 1uM” value: 8.86% for the first, 8.98% for the second.

Going from COc1cccc(NC(=O)Nc2cc(C(=O)O)ccc2N2CC3CC(C2)c2cccc(=O)n2C3)c1 (stereo not shown) to CCOc1cc(NC(=S)Nc2ccccc2)c(OCC)cc1NC(=O)c1ccc(OC)cc1, the “hERG current change (%, negative = inhibition) at 1uM” value falls from 14.3% to 12.7%.

First: COc1ccc(C(=O)N/N=C/c2ccc(OC)c(OS(=O)(=O)c3ccccc3)c2)cc1
Second: COc1ccc(C(=O)NNS(=O)(=O)c2ccc(C)cc2)cc1
The “hERG current change (%, negative = inhibition) at 1uM” value of the first is higher: 17.3% for the first, 0.298% for the second.

First: CC(=O)Oc1c(C(C)C)cc(N(C(C)=O)c2ccccc2)cc1C(C)C
Second: CC(C)c1nnc(NC(=O)C2CCN(C(=O)Nc3ccccc3)CC2)s1
The “hERG current change (%, negative = inhibition) at 1uM” value of the first is higher: 12.1% for the first, 5.36% for the second.

Going from O=C(/C=C/c1ccc(Cl)cc1Cl)OCC(=O)N1CCCC1 to CC1CCN(C(=O)COC(=O)C(C)N2C(=O)c3ccccc3C2=O)CC1 (stereo not shown), the “hERG current change (%, negative = inhibition) at 1uM” value falls from 5.54% to -2.2%.

First: Cn1cccc1Cc1nnc(SCC(=O)N2CCN(c3ccccc3)CC2)n1-c1ccc(F)cc1
Second: O=C(CSc1nnc(-c2cccc(S(=O)(=O)N3CCOCC3)c2)n1C1CCCCCC1)NCc1ccccc1
The “hERG current change (%, negative = inhibition) at 1uM” value of the first is higher: 13.8% for the first, -1% for the second.

Going from O=C(Nc1ccc2c(c1)OCO2)c1cccs1 to O=C(NCc1ccc2c(c1)OCO2)Nc1ccc2ccccc2c1, the “hERG current change (%, negative = inhibition) at 1uM” value falls from 18.7% to 13.9%.

Going from Cc1cc(C)nc(NS(=O)(=O)c2ccc(N=Cc3c(O)n(C)c(=O)n(C)c3=O)cc2)n1 to Cc1noc(C)c1-c1nc(CS(=O)(=O)c2ccc(Cl)cc2)no1, the “hERG current change (%, negative = inhibition) at 1uM” value falls from 10.5% to 7.64%.

First: COc1ccc([N+](=O)[O-])cc1N(CC(O)CN1CCCC1)S(=O)(=O)c1ccc(C)cc1 (stereo not shown)
Second: CSc1cccc(Nc2ccc(S(=O)(=O)N3CCOCC3)cc2[N+](=O)[O-])c1
The “hERG current change (%, negative = inhibition) at 1uM” value of the first is higher: 14.7% for the first, 5.58% for the second.

First: O=C(O)CSc1ccc(Oc2ccc(SCC(=O)O)cc2)cc1
Second: CN(C)c1ccc(C(=O)N(Cc2ccccc2)Cc2ccccc2)cc1
The “hERG current change (%, negative = inhibition) at 1uM” value of the first is lower: 11.5% for the first, 13.7% for the second.

Compared with O=S1(=O)CCOC[C@H](CC2CCCCC2)N1Cc1ccc(Cl)cc1, CN1CCN(c2ccc(S(=O)(=O)N3CCOCC3)cc2NC(=O)COc2ccc(F)cc2Cl)CC1 is lower in “hERG current change (%, negative = inhibition) at 1uM” value: 12.1% for the first, 2.88% for the second.

First: O=[N+]([O-])c1ccc(NCCNS(=O)(=O)c2ccccc2)c(C(F)(F)F)c1
Second: NC(=O)COC(=O)c1cc([N+](=O)[O-])ccc1NCCO
The “hERG current change (%, negative = inhibition) at 1uM” value of the first is higher: 11.6% for the first, -3.71% for the second.

Going from C=C(C)Cn1c(Sc2nc3ccccc3[nH]2)nc2c1c(=O)[nH]c(=O)n2C to COc1ccc(CNc2nc(-c3ccccc3)nc3ccccc23)cc1OC, the “hERG current change (%, negative = inhibition) at 1uM” value rises from -2.23% to 15.6%.

Compared with O=C(CN1CCOCC1)NNC(=S)Nc1ccccc1, c1ccc(Cn2nnc3c(NCCN4CCOCC4)ncnc32)cc1 is higher in “hERG current change (%, negative = inhibition) at 1uM” value: 0.729% for the first, 8.74% for the second.

Going from O=C1c2ccccc2C(Nc2cccnc2)N1Cc1ccccc1Cl (stereo not shown) to O=C(NCc1cccnc1)[C@@H]1CC=C[C@@H]2CCN(Cc3ccc(Cl)c(Cl)c3)C(=O)[C@@H]21, the “hERG current change (%, negative = inhibition) at 1uM” value falls from 2.59% to 2.32%.

First: O=C(Nc1ccc(N2CCOCC2)cc1)c1cnccn1
Second: COc1ccc(C(C(C(=O)c2ccco2)N2CCOCC2)N2CCOCC2)cc1 (stereo not shown)
The “hERG current change (%, negative = inhibition) at 1uM” value of the first is higher: 19.2% for the first, 9.92% for the second.

Going from CN1CCCC(C(=O)c2ccccc2)C1.O=C(O)/C=C/C(=O)O (stereo not shown) to Cc1ccc(NC(=O)/C=C/C(=O)O)c([N+](=O)[O-])c1, the “hERG current change (%, negative = inhibition) at 1uM” value falls from 10.8% to -28.8%.

Going from CS(=O)(=O)N1CCc2cc(C(=O)NC3CC3)ccc21 to Cc1c(C(=O)NCCCN2CCCC2=O)oc2c(Cl)cccc12, the “hERG current change (%, negative = inhibition) at 1uM” value falls from 19.1% to 9.95%.

First: COc1ccc(-c2csc(NC(=O)c3ccccc3S(C)(=O)=O)n2)cc1
Second: COc1ccccc1CNC(=O)CN(CCc1ccccc1)S(C)(=O)=O
The “hERG current change (%, negative = inhibition) at 1uM” value of the first is higher: 8.23% for the first, 1.74% for the second.

Compared with CCCc1cc(C(N)=O)c(NC(=O)c2ccoc2C)s1, CC(=O)c1sc(NC(=O)C2CC(=O)N(Cc3ccco3)C2)nc1-c1ccccc1 (stereo not shown) is lower in “hERG current change (%, negative = inhibition) at 1uM” value: -2.23% for the first, -7.26% for the second.

First: Cc1ccccc1NCc1nnc2n1CCCCC2
Second: Cc1cc(Cl)ccc1NC(=S)NCc1ccc(Cl)cc1
The “hERG current change (%, negative = inhibition) at 1uM” value of the first is lower: 2.9% for the first, 8.68% for the second.

Compared with CCCN(C1CCS(=O)(=O)C1)S(=O)(=O)c1cc(OC)ccc1OC (stereo not shown), COc1ccc(N2CCN(S(=O)(=O)c3ccc4c(c3)NC(=O)CC(=O)N4)CC2)cc1 is lower in “hERG current change (%, negative = inhibition) at 1uM” value: 25.3% for the first, 20.6% for the second.

Compared with COc1ccc(-c2[nH]nc3c2C(c2ccncc2)C(C#N)=C(N)O3)cc1 (stereo not shown), C=CCc1cccc(/C=N/n2c(C)nnc2C)c1O is higher in “hERG current change (%, negative = inhibition) at 1uM” value: 17.1% for the first, 20.8% for the second.

First: COC1OC(COC(=O)CNC(=O)OC(C)(C)C)C(O)C(O)C1O (stereo not shown)
Second: CC(=O)NC1C(OCc2cccc(Br)c2)OC(COC(C)=O)C(OC(C)=O)C1OC(C)=O (stereo not shown)
The “hERG current change (%, negative = inhibition) at 1uM” value of the first is higher: 6.13% for the first, -0.735% for the second.

Going from Nc1nc(NCCCN2CCOCC2)nc(Nc2cccc(Cl)c2)c1[N+](=O)[O-] to CCCc1nc2sc3c(c2c(=O)n1NC(=O)CCCl)CCCC3, the “hERG current change (%, negative = inhibition) at 1uM” value rises from 2.1% to 3.22%.
